According to the supplement of paper PMC9151546:
Most values come without repeats; read them as rough.

Experiments:
CHO-K1 [1] = assay: hypodiploid nuclei frequency (% of nucleated events); higher = more hypodiploid events (aneugenic)
Protocol: (§1)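 Flow-cytometric in vitro micronucleus assay (Litron MicroFlow) in CHO-K1 cells in 96-well plates, 19 concentrations (4.5-200 µM, n=1 per concentration). Without S9, cells were exposed for 24 h and sampled at 48 h. With Aroclor 1254-induced rat liver S9, cells were exposed for 3-4 h and sampled at 27-28 h. Read-outs are %MN and %hypodiploid nuclei relative to nucleated events, and relative survival as the nuclei-to-bead ratio versus the 1% DMSO vehicle control (x100).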

CHO-K1 [2] = assay: micronucleus frequency (% of nucleated events); higher = more micronuclei (genotoxic)
CHO-K1 [3] = assay: relative survival (nuclei to bead ratio vs DMSO control) (% of vehicle control); higher = more surviving cells
Protocol: as §1
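Throughout, for hypodiploid nuclei frequency (% of nucleated events): hypodiploid nuclei gated on a flow cytometer with 488 nm excitation after SYTOX Green staining, cultures at 37 °C, positive controls vinblastine without S9 and cyclophosphamide with S9.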
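Throughout, for micronucleus frequency (% of nucleated events): cells lysed with nuclei stained by SYTOX Green, then micronucleus-gated events counted against nucleated events by flow cytometry with 488 nm excitation.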
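Throughout, for relative survival (nuclei to bead ratio vs DMSO control): Lysed-cell nuclei stained with SYTOX Green and counted against counting beads by flow cytometry at 488 nm excitation, with vinblastine (no S9) and cyclophosphamide (plus S9) as positive controls.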

Cc1cc(=O)[nH]c(=S)[nH]1 [6-Methyl-2-thiouracil]
Settings	hypodiploid nuclei frequency, CHO-K1 [1] [%]	micronucleus frequency, CHO-K1 [2] [%]	relative survival, CHO-K1 [3]
concentration: 4.5 (µM), S9 metabolic activation: with S9, exposure time: 3-4 hours	0.26	1.38	127
concentration: 4.5 (µM), S9 metabolic activation: without S9, exposure time: 24 hours	0.62	2.52	113
concentration: 5.63 (µM), S9 metabolic activation: with S9, exposure time: 3-4 hours	0.16	1.58	116
concentration: 5.63 (µM), S9 metabolic activation: without S9, exposure time: 24 hours	0.44	2.14	109
concentration: 7.04 (µM), S9 metabolic activation: with S9, exposure time: 3-4 hours	0.22	1.24	92.8
concentration: 7.04 (µM), S9 metabolic activation: without S9, exposure time: 24 hours	0.58	2.46	104
concentration: 8.8 (µM), S9 metabolic activation: with S9, exposure time: 3-4 hours	0.1	1.4	92.6
concentration: 8.8 (µM), S9 metabolic activation: without S9, exposure time: 24 hours	0.6	2.84	90.5
concentration: 11 (µM), S9 metabolic activation: with S9, exposure time: 3-4 hours	0.18	1.38	92.8
concentration: 11 (µM), S9 metabolic activation: without S9, exposure time: 24 hours	0.46	2.34	119
concentration: 13.7 (µM), S9 metabolic activation: with S9, exposure time: 3-4 hours	0.2	1.34	90.4
concentration: 13.7 (µM), S9 metabolic activation: without S9, exposure time: 24 hours	0.66	2.8	103
concentration: 17.2 (µM), S9 metabolic activation: with S9, exposure time: 3-4 hours	0.3	1.54	91.1
concentration: 17.2 (µM), S9 metabolic activation: without S9, exposure time: 24 hours	0.76	3.5	111
concentration: 21.5 (µM), S9 metabolic activation: with S9, exposure time: 3-4 hours	0.24	0.96	78.1
concentration: 21.5 (µM), S9 metabolic activation: without S9, exposure time: 24 hours	0.56	1.92	94.9
concentration: 26.8 (µM), S9 metabolic activation: with S9, exposure time: 3-4 hours	0.28	2.44	153
concentration: 26.8 (µM), S9 metabolic activation: without S9, exposure time: 24 hours	0.82	2.56	101
concentration: 33.6 (µM), S9 metabolic activation: with S9, exposure time: 3-4 hours	0.42	1.8	124
concentration: 33.6 (µM), S9 metabolic activation: without S9, exposure time: 24 hours	0.62	2.46	89.4
concentration: 41.9 (µM), S9 metabolic activation: with S9, exposure time: 3-4 hours	0.24	1.58	122
concentration: 41.9 (µM), S9 metabolic activation: without S9, exposure time: 24 hours	0.82	2.9	130
concentration: 52.4 (µM), S9 metabolic activation: with S9, exposure time: 3-4 hours	0.24	2.24	132
concentration: 52.4 (µM), S9 metabolic activation: without S9, exposure time: 24 hours	0.62	2.64	132
concentration: 65.5 (µM), S9 metabolic activation: with S9, exposure time: 3-4 hours	0.22	1.96	120
concentration: 65.5 (µM), S9 metabolic activation: without S9, exposure time: 24 hours	1.08	2.92	108
concentration: 81.9 (µM), S9 metabolic activation: with S9, exposure time: 3-4 hours	0.34	1.64	118
concentration: 81.9 (µM), S9 metabolic activation: without S9, exposure time: 24 hours	0.84	2.96	116
concentration: 102 (µM), S9 metabolic activation: with S9, exposure time: 3-4 hours	0.26	2.02	153
concentration: 102 (µM), S9 metabolic activation: without S9, exposure time: 24 hours	0.98	3.86	112
concentration: 128 (µM), S9 metabolic activation: with S9, exposure time: 3-4 hours	0.4	1.68	140
concentration: 128 (µM), S9 metabolic activation: without S9, exposure time: 24 hours	1.2	4.16	105
concentration: 160 (µM), S9 metabolic activation: with S9, exposure time: 3-4 hours	0.56	2.9	117
concentration: 160 (µM), S9 metabolic activation: without S9, exposure time: 24 hours	1.44	3.72	131
concentration: 200 (µM), S9 metabolic activation: with S9, exposure time: 3-4 hours	0.42	1.5	126
concentration: 200 (µM), S9 metabolic activation: without S9, exposure time: 24 hours	1.4	3.72	126

Cc1ccc2ncccc2c1 [6-Methylquinoline]
Settings	hypodiploid nuclei frequency, CHO-K1 [1] [%]	micronucleus frequency, CHO-K1 [2] [%]	relative survival, CHO-K1 [3]
concentration: 4.5 (µM), S9 metabolic activation: with S9, exposure time: 3-4 hours	0.08	0.72	130
concentration: 4.5 (µM), S9 metabolic activation: without S9, exposure time: 24 hours	0.54	1.84	133
concentration: 5.63 (µM), S9 metabolic activation: with S9, exposure time: 3-4 hours	0.18	0.98	157
concentration: 5.63 (µM), S9 metabolic activation: without S9, exposure time: 24 hours	0.56	1.72	127
concentration: 7.04 (µM), S9 metabolic activation: with S9, exposure time: 3-4 hours	0.18	1.46	121
concentration: 7.04 (µM), S9 metabolic activation: without S9, exposure time: 24 hours	0.56	1.92	141
concentration: 8.8 (µM), S9 metabolic activation: with S9, exposure time: 3-4 hours	0.1	0.76	124
concentration: 8.8 (µM), S9 metabolic activation: without S9, exposure time: 24 hours	0.54	1.8	140
concentration: 11 (µM), S9 metabolic activation: with S9, exposure time: 3-4 hours	0.16	1.06	117
concentration: 11 (µM), S9 metabolic activation: without S9, exposure time: 24 hours	0.62	1.68	130
concentration: 13.7 (µM), S9 metabolic activation: with S9, exposure time: 3-4 hours	0.26	1	121
concentration: 13.7 (µM), S9 metabolic activation: without S9, exposure time: 24 hours	1.06	2.28	105
concentration: 17.2 (µM), S9 metabolic activation: with S9, exposure time: 3-4 hours	0.2	0.9	128
concentration: 17.2 (µM), S9 metabolic activation: without S9, exposure time: 24 hours	0.64	1.6	113
concentration: 21.5 (µM), S9 metabolic activation: with S9, exposure time: 3-4 hours	0.12	1.4	118
concentration: 21.5 (µM), S9 metabolic activation: without S9, exposure time: 24 hours	0.94	1.44	111
concentration: 26.8 (µM), S9 metabolic activation: with S9, exposure time: 3-4 hours	0.24	1.26	154
concentration: 26.8 (µM), S9 metabolic activation: without S9, exposure time: 24 hours	0.7	1.82	102
concentration: 33.6 (µM), S9 metabolic activation: with S9, exposure time: 3-4 hours	0.34	1.52	118
concentration: 33.6 (µM), S9 metabolic activation: without S9, exposure time: 24 hours	0.42	1.66	113
concentration: 41.9 (µM), S9 metabolic activation: with S9, exposure time: 3-4 hours	0.2	1.36	117
concentration: 41.9 (µM), S9 metabolic activation: without S9, exposure time: 24 hours	0.72	1.8	113
concentration: 52.4 (µM), S9 metabolic activation: with S9, exposure time: 3-4 hours	0.18	2.06	94.8
concentration: 52.4 (µM), S9 metabolic activation: without S9, exposure time: 24 hours	0.76	1.88	128
concentration: 65.5 (µM), S9 metabolic activation: with S9, exposure time: 3-4 hours	0.25	3.18	70.3
concentration: 65.5 (µM), S9 metabolic activation: without S9, exposure time: 24 hours	0.72	2.72	121
concentration: 81.9 (µM), S9 metabolic activation: with S9, exposure time: 3-4 hours	0.22	3.97	56.9
concentration: 81.9 (µM), S9 metabolic activation: without S9, exposure time: 24 hours	0.96	2.1	107
concentration: 102 (µM), S9 metabolic activation: with S9, exposure time: 3-4 hours	0.41	3.36	82.3
concentration: 102 (µM), S9 metabolic activation: without S9, exposure time: 24 hours	0.66	1.6	119
concentration: 128 (µM), S9 metabolic activation: with S9, exposure time: 3-4 hours	0.38	3.17	88.7
concentration: 128 (µM), S9 metabolic activation: without S9, exposure time: 24 hours	0.88	2.34	101
concentration: 160 (µM), S9 metabolic activation: with S9, exposure time: 3-4 hours	0.26	5.65	59.4
concentration: 160 (µM), S9 metabolic activation: without S9, exposure time: 24 hours	0.92	2.08	94.6
concentration: 200 (µM), S9 metabolic activation: with S9, exposure time: 3-4 hours	0.46	6.71	55.8
concentration: 200 (µM), S9 metabolic activation: without S9, exposure time: 24 hours	1.2	2.66	110
